Here are results for 89 compounds from PubChem BioAssay AID463173 (ICCB-Longwood Screening Facility, Harvard Medical School, 2010).

The structures appear in SMILES notation. The campaign covered roughly 52,000 compounds. About 4,300 (8.3%) were called active. No stated cut-off is given here; in the data, active means survival mostly below about 52% (no sharp cut-off); inactive means mostly above about 56%. The list shows a part of the results.

The assay has as its system DeltatarO mutant. In words: S. aureus survival, RN4220 and DeltatarO strains – OD600, teichoic acid synthesis inhibitors, primary screen (AID 463173). The note with it: S. aureus RN4220 wild type/DeltatarO growth, OD600, 18 h, hits give low values, screened at 18.75 µg/mL (by protocol).
Consider `C1CN(c2nc(N3CCOCC3)nc(N3CCOCC3)n2)CCN1`, for which the survival was inactive: 95%.

Take `CC(C)N(Cc1ccccc1)C(=O)CCS(=O)(=O)c1cc2c(cc1Cl)NC(=O)CO2`: the survival is inactive: 103%.

`Cc1cc(NC(=O)C(C)C)cc(-c2nc3ncccc3o2)c1O`: the survival is inactive: 90%.

Consider `Cc1ccc2nc(-c3ccc(O)cc3)c(Nc3ccc4c(c3)OCO4)n2c1`, for which the survival was inactive: 73%. In the case of `Cc1cc(C)n2nc(SCC(=O)Nc3ccccc3)nc2n1` it was inactive: 68%; in that of `C=CCSc1nnnn1-c1ccc(OC)cc1`, inactive: 95%; in that of `COc1cc(-c2nnc(SCC(=O)Nc3ccc(F)c(Cl)c3)o2)cc(OC)c1OC`, inactive: 110%. In the case of `CCCNC(=O)C1CCN(S(=O)(=O)c2ccc3c(c2)CCCN3C(C)=O)CC1` it was inactive: 120%; in that of `CC1CC(C)CN(c2nc3c(c(=O)[nH]c(=O)n3C)n2Cc2ccccc2F)C1` (centres undefined), inactive: 97%. In the case of `Cc1cc2nc(-c3cc(NC(=O)c4cc5ccccc5o4)ccc3Cl)oc2cc1C` it was inactive: 50%; in that of `COc1cccc(C(=O)Nc2ccccc2OCc2cc(=O)n3cc(C)ccc3n2)c1`, inactive: 95%; in that of `CCc1ccc(NC(=O)CSc2nc3n[nH]c(C)c3c(=N)n2-c2ccccc2C)cc1`, inactive: 92%.

With `Cc1oc(-c2ccc(Cl)cc2)nc1CS(=O)CC(=O)NCc1ccc(Cl)cc1` (centres undefined), the survival was inactive: 63%. In the case of `CCCCOc1ccc(CNC(=O)C2CCN(c3nnc(-n4cccc4CNc4ccc(C)cc4)s3)CC2)cc1` it was inactive: 76%. In the case of `CC(C)NC(=O)CSc1nc2ccccc2n1CC(=O)N1CCOCC1` it was inactive: 83%; in that of `COc1ccc2c(c1)CCc1c(C(=O)Nc3cc(C)ccc3O)noc1-2`, inactive: 74%. In the case of `Cc1ccc(-c2nc3cc(C(C)C)ccc3o2)cc1NC(=O)c1cccs1` it was inactive: 57%; in that of `COc1cc(Cn2c(=O)sc3ccccc32)ccc1OC(C)C`, active: 40%. With `COCCn1c(C)cc(O)c(C(c2ccccc2)N2CCN(C)CC2)c1=O` (centres undefined), the survival is inactive: 95%. In the case of `CC12CCCCN1CCCc1c2[nH]c2ccccc12` (centres undefined) it was inactive: 86%; in that of `COC(=O)c1cccc(Nc2c(-c3ccc(O)c(OC)c3)nc3nc[nH]n23)c1`, inactive: 92%. In the case of `CCOc1ccc(-c2c(C)nn3c(C)c(C(=O)Nc4ccccc4C(=O)OC)cnc23)cc1OCC` it was active: -4%; in that of `COCc1cc(C)nc2sc3c(c12)NC(c1ccc(O)cc1)N(c1ccc(OC)cc1)C3=O` (centres undefined), inactive: 76%. For the compound `CCOc1ccc(NC(=O)C2Cc3ccccc3N2C(=O)c2ccccc2)cc1` (centres undefined), the survival was inactive: 67%. In the case of `CCOc1ccc2[nH]c(=O)c(CN(Cc3cccnc3)S(=O)(=O)c3ccccc3)cc2c1` it was inactive: 86%; in that of `CCOc1ccc(-c2nnc(SCC(=O)NCCC(C)C)nc2-c2ccc(OCC)c(OC)c2)cc1OC`, inactive: 94%; in that of `Cc1cn2c(=O)c(S(=O)(=O)NCCc3ccccc3)c(C)nc2s1`, inactive: 99%. For the compound `CC(C)CN1CCc2nc(N3CCN(c4ncccn4)CC3)ncc2C1`, the survival was inactive: 72%. In the case of `COc1cccc(C(=O)NCC(c2ccc(N(C)C)cc2)N2CCCC2)c1OC` (centres undefined) it was inactive: 94%; in that of `Nc1ccc(S(=O)(=O)NCc2ccncc2)cc1`, inactive: 85%; in that of `COc1ccc(CNC(=O)Cc2csc3ccccc23)cc1OC`, inactive: 82%. In the case of `COc1cccc(NC(=O)CCNS(=O)(=O)c2ccc(Br)s2)c1` it was active: 37%; in that of `CC1=CC(C)C2C(=O)N(c3ccccc3)C(=O)C2C1` (centres undefined), inactive: 70%; in that of `CC(NC(=O)c1cc(Sc2ccc(F)cc2F)nc2ccccc12)c1ccccc1` (centres undefined), inactive: 69%. Turning to `Cc1cccc(NC(=O)N2CCc3c(sc4c3CCCC4)C2c2ccc(F)cc2)c1` (centres undefined), the survival is active: 37%. In the case of `COc1cccc(-n2c(=O)c3c(C)c(C(=O)N(C)C)sc3n(CC(=O)NCCc3ccc(OC)c(OC)c3)c2=O)c1` it was inactive: 69%. In the case of `COc1ccc(-c2nc(C)c(CCNC(=O)Cc3ccc(F)cc3)s2)cc1OC` it was inactive: 83%. Take `CCc1ccc(NC(=O)C2CCN(C(=O)N3CC(CC)Oc4ccccc43)CC2)cc1` (centres undefined): the survival was inactive: 58%. In the case of `CCc1ccc(NC(=O)CSc2nc3nccnc3c(=O)n2CCc2c[nH]c3ccccc23)cc1` it was inactive: 88%.

In the case of `COc1ccc2nc(SCC(=O)c3c(C)[nH]c4ccccc34)nc(C)c2c1`, the survival was inactive: 86%. In the case of `CCOc1ccc(OCC)c(NC(=O)C2CCN(S(=O)(=O)c3ccc(Br)s3)CC2)c1` it was inactive: 80%; in that of `COc1ccccc1CNCC(=O)Nc1cc(C)on1`, inactive: 93%.

Take `Cc1ccc(N2CCN(C(=O)Cc3c(C(=O)O)c(C)cn3C)CC2)c(C)c1`: the survival was inactive: 81%.

In the case of `Cc1ccc(S(=O)(=O)c2nnn3c2nc(N2CCN(c4ccc(F)cc4)CC2)c2cc(Cl)ccc23)cc1C`, the survival was inactive: 99%. In the case of `O=C(Nc1ccc(F)cc1)[C@H](CSCc1ccccc1)N1Cc2ccccc2C1=O` it was inactive: 61%; in that of `O=C(COc1ccc(S(=O)(=O)NC2CCCCC2)cc1)Nc1ccc(C(F)(F)F)cc1`, inactive: 64%. In the case of `CC1(C(=O)C[n+]2cccc(C(N)=O)c2)CCC(=O)O1` (centres undefined) it was inactive: 92%. As to `Cc1cc(N2CCCCC2)nc2ccc(NC(=O)/C=C/c3ccccc3OC(C)C)cc12`, the survival was inactive: 73%. In the case of `Cc1ccc(CNC(=O)CSCc2ccc(F)cc2)cc1` it was inactive: 103%; in that of `O=S(=O)(c1ccccc1)n1nc(-c2ccccc2)nc1NCc1ccc(Cl)cc1`, inactive: 76%; in that of `CCOc1ccc(N(CC)S(=O)(=O)N2CCCC(C(=O)NCc3ccccc3Cl)C2)cc1` (centres undefined), inactive: 67%. Regarding `CCOc1cccc(CC(=O)N2CCc3c([nH]c4ccccc34)C2c2ccc(F)cc2)c1OCC` (centres undefined), the survival is inactive: 66%. Turning to `CC(=O)Nc1ccc(NC(=O)CCNS(=O)(=O)c2cccc3nsnc23)cc1`, the survival was inactive: 65%. As for `COc1cccc(NC(=O)Cn2cc(S(=O)(=O)N3CCCC3)c(S(=O)(=O)N3CCCC3)c2)c1`, the survival was inactive: 80%. With `CCOc1ccccc1CNC(=O)c1cc2cc(S(=O)(=O)N3CCCCC3)ccc2n1C`, the survival is inactive: 101%. In the case of `Cc1ccccc1CNC(=O)Cn1ncn2nc(-c3cccs3)cc2c1=O` it was inactive: 106%; in that of `CCc1ccc2oc(-c3cccc(NC(=O)c4ccc(N5CCC(C)CC5)c([N+](=O)[O-])c4)c3)nc2c1`, inactive: 67%; in that of `Cc1cccc(CSc2cn(CC(=O)N3CCCC3)c3ccccc23)c1`, inactive: 47%. In the case of `CCC(Oc1ccccc1)C(=O)Nc1ccc2oc(-c3ccc(OC)cc3)nc2c1` (centres undefined) it was inactive: 111%; in that of `Cn1c(=O)cc(OCCCC(=O)Nc2ccc(F)cc2)c2ccccc21`, inactive: 128%. For the compound `CCCN(CCC)CCCNC(=O)C1CCCN(S(=O)(=O)c2cccc3nsnc23)C1` (centres undefined), the survival was inactive: 101%.

As for `Cc1ccccc1-c1nc(CS(=O)(=O)CC(=O)N2CCN(c3ccccc3)CC2)c(C)o1`, the survival was inactive: 65%. For the compound `CCOc1ccc(CC(=O)Nc2c(C(=O)c3ccc(C)cc3)oc3ccccc23)cc1OCC`, the survival is inactive: 52%. Consider `CCC(=O)N1CCc2cc(Br)cc(S(=O)(=O)N3CCCC(C(=O)Nc4cccc(Cl)c4C)C3)c21` (centres undefined), for which the survival was inactive: 67%.

As to `CCCCNC(=O)CCn1c(=O)c2ccccc2n(Cc2ccccc2C#N)c1=O`, the survival is inactive: 86%. In the case of `Cc1ccc(C(=O)COC(=O)C(CC(C)C)NC(=O)C2CCC(C)CC2)cc1` (centres undefined) it was inactive: 66%; in that of `CCc1ccccc1NC(=O)c1ccc2nc(CCc3ccccc3)oc2c1`, inactive: 99%; in that of `COc1cc(C2N=C(N)Nc3nc4ccccc4n32)ccc1OCCC(C)C` (centres undefined), inactive: 68%. In the case of `CC(=O)c1cccc(NC(=O)C2CCCN(c3nnc(-n4cccc4)s3)C2)c1` (centres undefined), the survival was inactive: 79%.

With `COc1cccc(C(=O)Nc2cc(-c3ccccc3)no2)c1`, the survival is inactive: 57%. In the case of `CC(C)CC(=O)Nc1ccc(C(=O)OCc2cc(=O)n3nc(C(C)C)sc3n2)cc1` it was inactive: 90%. In the case of `COc1ccc(/C=C/c2nc(C#N)c(NCCc3ccc(OC)c(OC)c3)o2)cc1OC` it was inactive: 95%; in that of `COc1ccc(C(=O)N2CC(=O)Nc3ccc(F)cc3C2c2ccc(F)cc2)c(OC)c1` (centres undefined), inactive: 58%.

Regarding `CCC1CCc2nc3sc(C(=O)Nc4ccc(F)cc4F)c(N)c3cc2C1` (centres undefined), the survival was inactive: 78%. In the case of `CCOC(=O)c1cc(C)n(CC2CCC(C(=O)Nc3ccc(Cl)cc3)CC2)c1C` (centres undefined) it was active: 46%; in that of `CCOc1ccc(CCNC(=O)Cn2nnc(-c3ccccc3)n2)cc1OCC`, inactive: 71%; in that of `CC(=O)Nc1cccc(C(=O)NCc2ccc3c(c2)CCN3C(=O)c2ccccc2)c1`, inactive: 67%.

With `CCC(C)C(=O)N1CCCC(c2nc(-c3cccs3)no2)C1` (centres undefined), the survival was inactive: 108%. In the case of `COc1cc(NS(=O)(=O)c2ccc(NC(=O)c3ccccc3C(=O)O)cc2)nc(OC)n1` it was inactive: 58%; in that of `CCCCNC(=O)CSc1nc2nc(C)c(Cc3ccccc3C)c(C)n2n1`, active: 39%; in that of `COc1cc(OC)c(NC(=O)NC(C)c2c(-n3cccc3)sc(C)c2C)cc1Cl` (centres undefined), inactive: 121%. In the case of `Cc1ccc2cccc(NC(=O)c3ccc(-c4cccc([N+](=O)[O-])c4)o3)c2n1` it was inactive: 67%; in that of `O=C(Nc1cccc(C(=O)N2CCN(c3ccc(Cl)cc3)CC2)c1)c1nsc2ccccc12`, inactive: 120%; in that of `CCCCc1nnc(SCc2cc(=O)c3cc(C(=O)OCC)ccc3[nH]2)n1C`, inactive: 71%. In the case of `O=C(NCc1cccnc1)C1CCN(Cc2cc3ccccc3n2Cc2cccc(Cl)c2)CC1` it was inactive: 73%; in that of `CS(=O)(=O)Nc1ccc2c(c1)OCO2`, inactive: 75%. As for `CC(C)CC(NS(=O)(=O)c1ccc2c(c1)oc(=O)n2C)C(=O)NCCc1ccc(Cl)cc1` (centres undefined), the survival is inactive: 84%.

Regarding `COC(=O)c1ccc(NC(=O)c2cc(S(=O)(=O)N3CCc4ccccc43)cn2C)cc1`, the survival is inactive: 82%. In the case of `Cc1ccc(NC(=O)c2oc3ccccc3c2NC(=O)c2cc3ccccc3o2)cc1` it was inactive: 94%.
